# From the supplement of paper PMC3334620
# In all, about 33,000 sequences were measured (“E-score (-0.5 to 0.5)”: median about -0.041, highest 2% from about 0.37 on). This is one part of the list.
# Molecular target: T1, Ecm22 (UniProt Q05958)
# T1 sequence: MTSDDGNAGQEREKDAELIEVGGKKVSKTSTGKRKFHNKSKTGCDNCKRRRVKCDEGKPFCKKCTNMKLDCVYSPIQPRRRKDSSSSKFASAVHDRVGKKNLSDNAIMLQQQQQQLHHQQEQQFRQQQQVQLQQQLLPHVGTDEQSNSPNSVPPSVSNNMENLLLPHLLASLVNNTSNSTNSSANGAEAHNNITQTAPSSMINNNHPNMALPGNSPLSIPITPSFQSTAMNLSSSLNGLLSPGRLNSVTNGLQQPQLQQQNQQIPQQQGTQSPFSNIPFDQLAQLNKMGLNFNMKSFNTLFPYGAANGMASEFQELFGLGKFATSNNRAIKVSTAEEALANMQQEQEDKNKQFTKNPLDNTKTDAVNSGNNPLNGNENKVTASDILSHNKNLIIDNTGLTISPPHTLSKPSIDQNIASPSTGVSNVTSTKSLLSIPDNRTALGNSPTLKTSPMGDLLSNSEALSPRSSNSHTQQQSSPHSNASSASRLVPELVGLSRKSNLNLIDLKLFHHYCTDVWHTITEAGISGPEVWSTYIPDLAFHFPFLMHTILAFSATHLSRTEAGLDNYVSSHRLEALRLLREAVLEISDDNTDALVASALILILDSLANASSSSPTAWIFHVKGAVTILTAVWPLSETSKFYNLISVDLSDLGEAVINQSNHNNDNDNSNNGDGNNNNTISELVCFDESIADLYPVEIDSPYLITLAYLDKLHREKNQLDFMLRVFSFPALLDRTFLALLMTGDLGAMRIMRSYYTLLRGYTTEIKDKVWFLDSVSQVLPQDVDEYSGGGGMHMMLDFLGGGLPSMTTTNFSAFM
# Test: PBM E-score (8-mer binding enrichment) (E-score (-0.5 to 0.5)); higher = stronger / more preferred TF binding; most listed sequences are background and not binding sites
# Settings: protein concentration: 200 nM; construct: GST-full length
# How it was run: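 Full-length yeast transcription factors or their DNA-binding domains, GST-tagged and expressed with PURExpress, were applied at about 100-200 nM to universal all-10-mer Agilent arrays. These arrays had been made double-stranded by primer extension on fresh or once-stripped slides. Detection used fluorescent anti-GST, normalisation used masliner, and E-scores for ungapped eight-base words pooled with reverse complements came from the Universal PBM Analysis Suite.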
row,Sequence,PBM E-score
1,AAACCTGG,-0.231
2,TCCGCAGA,-0.0845
3,ATCCGCGC,0.0953
4,AATCTCGG,0.129
5,CATACATG,0.0482
6,CTCCAAGC,-0.141
7,GGGCGCGA,0.155
8,AGAGGAAG,-0.167
9,CAGCCTCC,-0.272
10,ACTCGCAA,0.205
11,ATGTTACG,0.223
12,CCCTCAGC,-0.0277
13,AAATCACG,0.123
14,CCCGCGGC,0.00541
15,GGCCTCAA,-0.111
16,AGCCCCGG,0.00976
17,GGGTTTTA,0.0146
18,ACGCCCGG,-0.0888
19,CTTTACTC,-0.126
20,CGGGGCTA,-0.157
21,AAGTCTTG,-0.0433
22,AGTACCCA,-0.208
23,CTGCTCCC,-0.073
24,TCCTTAAA,-0.1
25,ATAAAGTA,-0.0364

row,Sequence,PBM E-score
1,AAAAGCTA,0.00415
2,CACCCTCA,-0.223
3,ATCTCCGA,0.105
4,CGCACAAC,0.226
5,TCTTCACA,0.0421
6,ATGAAGCC,-0.0926
7,ACTGAGTC,-0.0115
8,GTGATATA,0.102
9,CACCTAGC,-0.227
10,GGCCGCGA,-0.113
11,AGGAATTG,-0.0722
12,CAGCTGAA,-0.185
13,CCGAGTAG,0.0401
14,ATCCCGGG,0.0366
15,GATGCTGA,-0.109
16,ACGGAAAG,-0.008
17,GACGCTAC,0.0696
18,TGTCACAA,-0.161
19,CTATACCC,-0.0698
20,CTTACCAA,0.0619
21,ACTAACCT,-0.00368
22,GTACCGCA,0.284
23,AATGAATA,0.156
24,CGGACGAG,-0.0963
25,GCCTGTCC,-0.00321

row,Sequence,PBM E-score
1,CCAACACG,0.0109
2,GGCCCCCA,-0.328
3,ACGACCCC,0.167
4,CTACTAGC,0.182
5,AACGGCAT,0.183
6,ACAACAGT,-0.17
7,CAGATGAC,-0.208
8,ACTCAAAC,0.00062
9,AACAATTG,-0.0918
10,GGGGGGTA,-0.282
11,GACTTACC,-0.0762
12,CTCAGCGC,-0.273
13,CTGATACA,-0.0548
14,CGACTACG,0.151
15,CGCAGATC,-0.123
16,AAACTCAT,-0.0166
17,AGCCACAC,0.0634
18,TAAACTCA,-0.0105
19,CGGCGCCG,0.0265
20,CGAGTCAA,0.1
21,AAGCCTAA,-0.0818
22,ATGCATGA,0.0112
23,CTAGACTC,-0.277
24,ATACCGTC,0.0334
25,CAATTGTG,-0.023

row,Sequence,PBM E-score
1,AAGTCTCC,-0.161
2,CATGAGCA,-0.214
3,CGAAACAG,0.153
4,TGCGTGAA,-0.0835
5,GCTACCAC,-0.209
6,CAGCTGTC,-0.112
7,AGGTGCAT,-0.19
8,AAGGGGTA,-0.217
9,AACACCGA,-0.0321
10,AGACATGC,-0.143
11,AACTCTCC,-0.139
12,AGACCGTG,-0.192
13,ACGTGAGC,-0.227
14,GCATCACA,-0.0326
15,GTCTTGCA,-0.134
16,AGCTCGCC,0.197
17,AATCTACT,-0.163
18,GCATCGAA,0.0551
19,CTGCGGGA,-0.163
20,ATTCGTGG,-0.00589
21,GCCTACAC,-0.0224
22,GTCTGACA,-0.0954
23,ACGCGTCA,0.177
24,ACCCAGGG,-0.286
25,TAACATCA,-0.0597

row,Sequence,PBM E-score
1,GAATCCGC,-0.0414
2,TAGGACGA,-0.216
3,CCGACCGC,-0.0494
4,TGATCCAA,-0.197
5,ATTGCGTA,0.2
6,AAGTGGCC,-0.248
7,AAGTACTA,0.138
8,ATAGCTAT,0.0944
9,CATCCGCG,0.0321
10,AATGACGT,-0.0386
11,CGTAATGA,0.129
12,ATAAGGAT,0.071
13,ACAGCTTA,0.0621
14,CTTGAAGA,-0.29
15,ACTATACA,0.108
16,CGAGGGTA,0.225
17,TAATATGA,0.083
18,CTCGAGAA,0.0569
19,GTAAAACA,0.0963
20,AGTAGTTA,-0.179
21,AGTCGGAT,0.122
22,ATGCTAGG,-0.0553
23,CGCTATGA,0.0292
24,GCTGGTAA,-0.147
25,CGGCATCA,0.0766

row,Sequence,PBM E-score
1,AAGTCATT,-0.206
2,CAATGAGC,-0.269
3,TATAAAAA,0.0731
4,AGAGGTAG,-0.333
5,CGGCGTCC,-0.14
6,ACCGCTAC,0.119
7,AGTCGCCC,-0.349
8,CGAGCCCA,0.125
9,GGAGATGA,-0.157
10,AAACGAAC,0.454
11,CGCTACCA,0.00702
12,TACGAGCA,0.467
13,CAACACCA,-0.15
14,GGTGATGA,-0.112
15,GGTCAACA,-0.173
16,CATCAACC,0.0609
17,CATTTTGC,-0.0711
18,AGGGATAC,-0.0261
19,AACCAGCG,-0.0573
20,CCTTTTCC,0.055
21,GTTGCTGA,0.063
22,ACAAACAC,-0.0112
23,AGCGCATG,-0.243
24,CATTAGCG,0.0731
25,ATGCTCAG,-0.183

row,Sequence,PBM E-score
1,AGCAGAAA,0.0162
2,AGAGATGA,-0.169
3,GTTCATGA,0.204
4,CTCAATAC,-0.0168
5,ACTTTGAC,-0.00106
6,ATGAAGCA,-0.3
7,GATTCCTA,-0.0542
8,AACCCAAC,-0.0376
9,ACTAGAAA,-0.124
10,TAGTCCCA,-0.146
11,TGTATACA,0.0967
12,GCAGCCTA,-0.028
13,GTGCATTA,-0.0444
14,ATTTAAGC,0.2
15,CGAATCCA,0.23
16,TCCCTTCA,-0.124
17,ACACCCAG,-0.2
18,CTATCCAA,-0.203
19,AATAAGGG,0.00161
20,AACATCGG,-0.075
21,CACATCGG,0.027
22,AGCATCTA,-0.154
